# Reference: the supplement of paper PMC3334620
# The full ranking holds about 33,000 sequences; the median of “E-score (-0.5 to 0.5)” is about -0.04, and the highest 2% start at about 0.36. This is one part of the list.
# Biological target: T1, Hmlalpha2 (UniProt P0CY09)
# T1 sequence: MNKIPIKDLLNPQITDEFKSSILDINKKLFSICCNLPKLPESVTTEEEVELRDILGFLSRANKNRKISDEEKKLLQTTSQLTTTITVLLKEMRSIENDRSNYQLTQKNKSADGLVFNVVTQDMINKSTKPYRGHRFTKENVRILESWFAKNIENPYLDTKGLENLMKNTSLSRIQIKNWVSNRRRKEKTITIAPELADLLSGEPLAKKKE
# Test: PBM E-score (8-mer binding enrichment) (E-score (-0.5 to 0.5)); higher = stronger / more preferred TF binding; most listed sequences are background and not binding sites
# Conditions: protein concentration: 200 nM; construct: GST-full length
# Summary of the method: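 E-scores (a modified Wilcoxon-Mann-Whitney statistic) were assigned by the Universal PBM Analysis Suite to every ungapped eight-base word pooled with its reverse complement. The input came from universal all-10-mer Agilent arrays made double-stranded by primer extension and probed with GST-tagged yeast transcription factors at about 100-200 nM. Fluorescent anti-GST detected bound protein, and masliner normalised the scans.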
row,Sequence,PBM E-score
1,GCGCCTCC,-0.215
2,TAACTCCA,-0.137
3,CTAGCCGA,-0.261
4,CTCGCTGC,-0.0388
5,AGTCCCGA,-0.108
6,CACTTGTC,-0.226
7,GGGCTTTA,-0.142
8,ACGCTGAA,-0.0254
9,AGCATCAA,0.0657
10,ACGTCCGG,-0.137
11,AGTTAGGC,-0.104
12,AACGTCAT,0.0264
13,CCTCATTC,-0.136
14,TAGACCGA,-0.0145
15,ATGCGTCA,0.0451
16,GCCTAATA,-0.0812
17,ATCGTATG,0.155
18,CTATAAAA,0.0964
19,CCAACGAA,-0.092
20,CTGAACCC,-0.137
21,GCGACAAC,0.123
22,AAGTAACC,0.0188
23,GAAGTTCC,-0.324
24,GAATTCTA,0.13
25,GTACTCCA,-0.138

row,Sequence,PBM E-score
1,ATGTTGTC,0.364
2,CGAACCCC,-0.333
3,AGGTGCGC,-0.174
4,CCACAAGA,-0.182
5,CACGACAC,0.167
6,CCGGCGGC,-0.322
7,AGACACAC,-0.031
8,GGATAAAA,-0.0722
9,ATAGCATG,0.171
10,AGTGGACA,-0.093
11,AGTTCAGG,-0.0941
12,CGGGATAA,0.221
13,CACCTCCG,-0.121
14,CGAATTTC,-0.0877
15,CACTAGAA,-0.0526
16,CCTTTGGC,-0.0752
17,ATCTAGCG,-0.103
18,AGGGGCAC,-0.238
19,GTCCGAAC,-0.192
20,CGGATTAA,-0.0582
21,CGCGTATA,0.372
22,CCGTGGAC,-0.17
23,CACAAACG,0.241
24,GCAACTAC,0.0807
25,CGAGGAGC,-0.107

row,Sequence,PBM E-score
1,CACGGGCC,-0.0755
2,TAGAACAA,0.165
3,CTCTATGC,-0.117
4,GTTACCGA,0.00752
5,GCTAGCCA,-0.251
6,CACGACTA,0.0588
7,AACAACTA,0.162
8,TCCAGCGA,-0.131
9,CACCGTAG,-0.0717
10,ACTCCTAT,-0.0573
11,CGGGTACA,0.0539
12,CGCCCGCG,-0.114
13,CGTTGGTC,-0.102
14,CCTTTCGC,-0.175
15,CTACTCTC,-0.182
16,GGCCTATA,-0.278
17,CCATCGCA,-0.184
18,AGTGCGGC,-0.177
19,AATTTTAG,-0.0104
20,ATACGCTC,0.213
21,ACCTTCAA,0.143
22,ACGAGCAC,-0.0142
23,CAAGTCGC,-0.243
24,CCATCTCA,-0.243
25,AGAAATTG,-0.132

row,Sequence,PBM E-score
1,GTATCATA,0.246
2,CGGTGAAG,-0.253
3,ACGTCAGA,0.0938
4,CTGGACTC,-0.0558
5,AAGCCTTC,-0.104
6,GCCAAGCA,-0.147
7,ATAGCCCC,-0.178
8,CCATCAAA,-0.163
9,CAGATCAA,0.0317
10,CTAATACA,0.342
11,GCACACGC,0.0292
12,AAATAACA,0.316
13,CCAGAAGC,-0.302
14,GATACGGC,-0.173
15,TAATCTAA,0.162
16,AGTGGGAT,-0.0546
17,CCTTCCCA,-0.15
18,AAGACCCA,-0.253
19,CATTAGAC,-0.164
20,GAGGGGTA,-0.281
21,GCTCATGA,-0.053
22,AGAGCGAA,-0.102
23,AGCGAGTA,0.158
24,ACTGGCAC,-0.251
25,GATCTCAA,0.0566

row,Sequence,PBM E-score
1,CTGAGACC,-0.106
2,GGATGGCC,-0.217
3,AGTGCCAA,-0.0269
4,GGGTTTAC,0.211
5,TATAAATA,0.179
6,ATACGCCG,0.0255
7,ATACCTAA,0.119
8,AAAGCACA,0.123
9,AACCTGCA,-0.145
10,AACGGGCG,-0.168
11,AATACATA,0.444
12,GGTTACAA,0.294
13,AAACTAGC,-0.112
14,GGATAAAC,0.198
15,CCCCGTGA,-0.253
16,CGCAGGTC,-0.122
17,GAGAATAA,0.0756
18,AAGAAATC,-0.0354
19,AGTTCGAT,0.0721
20,AATGGGGG,-0.322
21,AACTCCGT,0.0205
22,AAGAAAGC,-0.142
23,ACAGCCAT,0.162
24,CAACCGAA,-0.0155
25,ACAACACA,0.405

row,Sequence,PBM E-score
1,ACGGTAAG,-0.0885
2,GCGGGTAC,-0.0244
3,AGAATGGC,-0.0602
4,AGGCAACT,0.162
5,TATCCTCA,-0.113
6,AAGGGACC,-0.279
7,AACGAAAT,0.101
8,CCTCATAG,-0.186
9,AACTGTAT,0.134
10,CCAGGAAG,-0.0163
11,GCTAGTAC,0.0705
12,TCATCGCA,0.104
13,AGCACGTG,0.239
14,AGGGAGTG,-0.23
15,AATAGTGA,0.0551
16,AGAGGCAG,-0.307
17,ACTAGCCC,-0.0194
18,AATGCGTC,-0.0373
19,CGGCTACC,-0.0726
20,AGAGCCTC,-0.407
21,CTGGCTCC,-0.238
22,CAGAGATA,0.0233
23,CAGAGTAA,0.0512
24,ACGGGAAG,-0.0832
25,GTTCCTTA,-0.0384

row,Sequence,PBM E-score
1,TGTCTTAA,0.217
2,ATCACTAC,0.0341
3,AGTTCGGA,-0.0234
4,ATTTGCAA,0.158
5,ACGGCCTG,-0.0496
6,GGAACGCC,-0.189
7,CCACCTGA,-0.205
8,AAAATCAA,0.102
9,AACACCGC,0.0614
10,GCAATCTA,0.119
11,ACTGCGTG,-0.00695
12,GCAGCTCA,-0.181
13,TGATAACA,0.351
14,CAGCGATC,-0.0974
15,CAGGCGGA,0.00932
16,GTCACTCA,0.0271
17,TAAAGAGA,0.13
18,GACACCAC,-0.108
19,AGATAAAT,0.0654
20,CGTAGTGA,0.0926
21,ACGGCAGC,-0.0412
22,AATGTAGC,-0.0794
